From PubChem BioAssay AID2546 (National Center for Advancing Translational Sciences (NCATS), 2010)
Out of some 310,000 compounds screened, about 11,000 (3.5%) were called active. Inconclusive results, whose numbers are uncertain, are shown with a selection of clear calls. Calls come from the whole dose curve; as a rule, active = well fitted inhibition curve with a large enough effect; inconclusive = small, poorly fitted or top-dose-only effect, or effect the other way; inactive = flat fitted curve, though single readings scatter. No potency is given beside an inconclusive call; the fits are too rough.

Assay: VP16 counterscreen qHTS for inhibitors of ROR gamma transcriptional activity;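 note: Gal4-VP16 expression switched on by copper sulfate through the metallothionein promoter; nearly all actives have a fitted effect of over 50% in size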
Settings: Drosophila S2 Gal4-VP16 UAS-luciferase, luminescence, 20 h; series mostly up to 53.6 µM
Potency is the fitted concentration of half-maximal effect; tags give direction and shape of the fitted curve.

SMILES | Potency
O=C(NCCCl)Nc1ccccc1OCCOc1ccccc1NC(=O)NCCCl | inactive
O=C(CSc1ccc(-c2cccs2)nn1)Nc1ccccc1 | inactive
O=C(NNc1ncnc2c1cnn2-c1cccc(Cl)c1)c1ccco1 | active: 7.08 µM
S=C(NC1CCCCC1)NC1CCCCC1 | inconclusive [inhibitor, full curve, poor fit]
CO/N=C(/CS(=O)(=O)Cc1ccccc1Cl)c1ccc(Cl)cc1Cl | inconclusive [inhibitor, single point]
O=C(NC(=S)Nc1ccccc1Br)C1CCCC1 | active: 7.08 µM
CCC(C)C(=O)Nc1nccs1 (stereo unspecified) | active: 17.8 µM
CCOC(=O)CNC(=S)N(Cc1ccccc1)Cc1cccnc1 | inactive
Cc1cccc2sc(NC(=O)C3CCN(S(=O)(=O)c4cc([N+](=O)[O-])ccc4Cl)CC3)nc12 | inconclusive [inhibitor, partial curve, poor fit]
O=C(CSc1ncccn1)Nc1cc(Cl)ccc1[N+](=O)[O-] | inactive
Cc1ccc(OCc2cc(C(=O)N(C)Cc3cnn(-c4ccccc4C)c3)no2)cn1 | inconclusive [inhibitor, single point]
Cc1ccnc(Nc2nc(-c3ccc(O)cc3O)cs2)c1 | active: 2.24 µM
COc1ccc(NC(=S)Nc2cc(C)ccn2)c(OC)c1 | active: 3.16 µM
CCCCCCCCCCCCCC[N+](C)(C)C | inconclusive [inhibitor, partial curve]
Cc1ccsc1-c1nc(-c2ccccc2)c(-c2ccccc2)[nH]1 | inconclusive [inhibitor, single point]
O=C(O)CCCN1C(=O)/C(=C/c2cn(-c3ccccc3)nc2-c2cccs2)SC1=S | inconclusive [inhibitor, single point]
COc1cccc2cc(-c3csc(NC(=O)CCC(=O)NCCCN4CCC(C)CC4)n3)c(=O)oc12 | inconclusive [inhibitor, single point]
Cc1nc2nc(Cc3ccccc3)[nH]n2c(=O)c1Cl | inconclusive [inhibitor, single point]
COCCCNc1nc2c(-c3cccc(C)c3)nnn2c2ccccc12 | inactive
Cc1ccc(C)n1-c1ccc(-c2nnc3n2CCCCC3)s1 | inactive
O=C(CNCc1ccncc1)Nc1cc(S(=O)(=O)N2CCCCC2)ccc1Cl | inactive
COc1cccc(-n2c(-c3ccccc3)c[nH]c2=S)c1 | active: 10 µM
Cc1cccc(NC(=O)CSc2nnc(-c3ccccc3Br)o2)c1C | inconclusive [inhibitor, full curve]
Cc1ccc(CN2C(=O)NC(Cc3c[nH]c4ccccc34)C2=O)cc1 (stereo unspecified) | inconclusive [activator, single point]
CN(NS(=O)(=O)c1ccc(Br)cc1)c1nc(C(F)(F)F)nc2ccccc12 | inconclusive [inhibitor, single point]
COCCN(C(=S)Nc1c(C)cccc1C)C(C)c1cccs1 (stereo unspecified) | inconclusive [inhibitor, partial curve]

SMILES | Potency
COCCNC(=S)N/N=C(\C)c1cc2ccccc2o1 | active: 4.47 µM
CNc1ccc(SC#N)cc1 | inconclusive [inhibitor, single point]
COc1cccc(CN2CCN(C(=O)C3CCC(=O)N(C4CCCC4)C3)CC2)c1 (stereo unspecified) | inactive
O=C(C1CCN(S(=O)(=O)c2ccc3c(c2)OCCO3)CC1)N1CCc2ccccc21 | inactive
CC(C)n1c(NCc2nc3ccccc3n2C)nc2ccccc21 | inconclusive [inhibitor, single point]
Cc1cc(C)n(-c2nc(N(C)C)nc(N3CCOCC3)n2)n1 | inconclusive [inhibitor, single point]
CC(=O)N1CCc2cc(S(=O)(=O)Nc3cccc(C(F)(F)F)c3)ccc21 | active: 5.01 µM
Cc1ccsc1/C=N/n1c(-c2ccccn2)n[nH]c1=S | inconclusive [inhibitor, single point]
COc1ccc(NC(=S)NC2CCCCC2)c(OC)c1 | inconclusive [inhibitor, single point]
CCOC(=O)N1CCN(C(=O)c2ccccc2CCc2ccccc2)CC1 | inactive
CC1CCc2sc(NC(=S)NC(=O)c3ccccc3)c(C#N)c2C1 (stereo unspecified) | inconclusive [inhibitor, single point]
CCCCCCSc1nnc(-c2cnn(-c3ccccc3)c2-n2cccc2)n1C | inconclusive [inhibitor, single point]
O=C(NCCc1ccc(Cl)cc1)C1CCCO1 (stereo unspecified) | inactive
CCCC[C@@H](C=O)NC(=O)[C@H](CC(C)C)NC(=O)[C@H](CC(C)C)NC(C)=O | inactive
COc1ccc(/C=N/n2cnc3c([nH]c4ccc(Br)cc43)c2=O)cc1CN1CCOCC1 | inconclusive [inhibitor, partial curve]
Cc1ccc(S(=O)(=O)NNC(=O)c2cccs2)c(C)c1 | inactive
O=C(Nc1cccc(NC(=O)c2ccc([N+](=O)[O-])o2)c1)c1ccco1 | inconclusive [inhibitor, single point]
COc1ccc(C(CCN(Cc2ccc(OC)c(OC)c2)C(=O)CCl)c2ccccc2)cc1 (stereo unspecified) | inconclusive [inhibitor, single point]
Cc1c(Cc2ccc3c(c2)OCO3)sc(NC(=O)c2ccc3ccccc3c2)c1C(N)=O | inactive
O=C(CC1CC2CCC1C2)OCC(=O)c1c[nH]c2ccccc12 (stereo unspecified) | inconclusive [inhibitor, single point]
COc1ccc(-c2nc(Cn3c(SCc4cccc(F)c4)nc4ccncc43)c(C)o2)cc1OC | inconclusive [inhibitor, single point]
NS(=O)(=O)c1ccc(NC(=O)COC(=O)c2ccc([N+](=O)[O-])s2)cc1 | inactive
Cc1ccccc1CNS(=O)(=O)c1ccccc1[N+](=O)[O-] | inconclusive [activator, single point]
COc1cccc(Nc2ccc(Nc3cccc(OC)c3)nn2)c1 | inactive
FC(F)(F)c1nnc(-c2ccccc2)nc1Sc1ccccc1 | inconclusive [inhibitor, single point]
CCCCOc1ccc(C(=O)NNC(=S)NC(=O)CC)cc1 | inconclusive [inhibitor, single point]

SMILES | Potency
Cc1cccc(N2CCN(C(=O)CCS(=O)(=O)c3ccc4c(c3)NC(=O)C(C)S4)CC2)c1C (stereo unspecified) | inconclusive [inhibitor, single point]
Cc1ccc(NC(=S)NCCc2c[nH]c3ccccc23)cc1 | active: 20 µM
COc1ccc(/C=N/NC(=O)c2ccc3nc[nH]c3c2)c(OC)c1OC | inconclusive [inhibitor, single point]
CC(C)(C)S(=O)(=O)/C(C#N)=N/Nc1ccc(S(C)(=O)=O)cc1 | inactive
N#C/C(=C\c1cccc([N+](=O)[O-])c1)c1ccccn1 | inactive
CCc1nnc(NC(=O)CSc2nncc(=O)n2N)s1 | inactive
CCOC(=O)/C=C/C(=O)Nc1cccc([N+](=O)[O-])c1 | inconclusive [inhibitor, full curve, poor fit]
NC(=O)c1sc2nc3c(cc2c1N)CCCCCC3 | inconclusive [activator, partial curve]
Cc1ccc(/C=C2\SC(=S)N(CCC(=O)NNS(=O)(=O)c3ccc(C)cc3)C2=O)cc1 | inconclusive [inhibitor, partial curve]
Cc1ccc(NC(=O)C2(NC(=O)c3cccc(N4C(=O)CSC4c4ccccc4)c3)CCCCC2)cc1 (stereo unspecified) | inactive
Cn1nc(-c2ccccn2)nc2c(=O)n(C)c(=O)nc1-2 | active: 0.562 µM
Cc1cc(Cl)ccc1NC(=S)NCC(C)C | active: 7.08 µM
CCOCCCNC(=S)Nc1ccc(Br)cc1Cl | inconclusive [inhibitor, single point]
CC(C)(C)C(=O)[C@@H]1[C@@H]2C(=O)N(C3CCCCC3)C(=O)[C@@H]2[C@H]2c3ccccc3C=CN12 | inconclusive [inhibitor, single point]
CCC(c1ccccc1)c1nc(-c2cccnc2)no1 (stereo unspecified) | inconclusive [activator, single point]
O=C(C[n+]1ccccc1)N/N=C/c1c(F)cccc1Cl | inactive
CCOC(=O)N1CCN(S(=O)(=O)c2ccc(C(=O)NNc3nc4cc(C)cc(C)c4s3)cc2)CC1 | active: 5.01 µM
CC(C)(C)c1ccc(/C=N/NC(=O)Cc2c[nH]c3ccccc23)cc1 | inconclusive [inhibitor, single point]
COc1ccc(NC(=S)Nc2cc(-c3ccccc3)[nH]n2)cc1Cl | active: 2 µM
COc1ccc(CN(C)C(=O)c2ccccc2Sc2ccccc2C#N)c(OC)c1 | inactive
CC(=O)c1cccc(N2Cc3ccccc3C2=NC(=O)CCl)c1 | inconclusive [inhibitor, single point]
Cc1ccc(C(C)NC(=S)NCc2ccc(F)cc2)cc1C (stereo unspecified) | active: 5.01 µM
Cc1ccc(S(=O)(=O)N(C)CC(O)Cn2c3ccccc3c3ccccc32)cc1 (stereo unspecified) | inconclusive [inhibitor, single point]
CC1Cc2cc(-c3csc(NC(=O)Cc4cccs4)n3)ccc2N1S(C)(=O)=O (stereo unspecified) | inconclusive [inhibitor, single point]
